Read counts are not given, so values of variants with three or more changes are uncertain.
B1: LINE1-mini (parent)
chain: GGCAGAGCUCAACACAGCGUGGCAAAGUGGCUGUGGCUAGACUGCC

Variants of: B1
Experiment: self-cleavage, relative activity (ratio to wild type); higher = more cleavage; in vitro, sequencing; the parent is a self-cleaving ribozyme

Row | Variant | self-cleavage
1 | C8A A11U G22U C31G G35U | 0.01
2 | C8A A11U G22U G40C | 0.03
3 | C8A A11U G29A G44C | 0.01
4 | C8A A11U G30U C45G | 0.03
5 | C8A A12C C18A A24G A25C | 0.01
6 | C8A A12C C23U G35U G36U A41U | 0.1
7 | C8A A12C G17U G36A | 0.02
8 | C8A A12C G19U C37G | 0
9 | C8A A12C U20C | 0.03
10 | C8A A12C U32C G35U | 0.05
11 | C8A A12C U32G U38G A39U G40C | 0
12 | C8A A12C U38C G40U G44A | 0.02
13 | C8A A12G A25C C31A | 0.37
14 | C8A A12G C15A | 0.37
15 | C8A A12U A24U A41C | 0.06
16 | C8A A12U C37G A41C | 0.03
17 | C8A A12U G27A U38A | 0.02
18 | C8A A14C C31A | 0.15
19 | C8A A14C C42U | 0.05
20 | C8A A14C U43A | 0.27
21 | C8A A14G G30U U34C | 0.03
22 | C8A A14U C37A | 0.21
23 | C8A A14U C46U | 0.23
24 | C8A A14U G19A A25G G27U | 0.19

Row | Variant | self-cleavage
25 | C8A A14U G21A G29C U38C | 0.19
26 | C8A A14U U20G U38C C46A | 0.22
27 | C8A A16C G17A | 0.08
28 | C8A A16G G19A G30U | 0.11
29 | C8A A16G G29C | 0.03
30 | C8A A16U A24G U34A | 0.14
31 | C8A A16U A25C | 0.11
32 | C8A A24C C42U | 0.12
33 | C8A A24C G29C | 0.32
34 | C8A A24U A25U G29U G35C | 0.05
35 | C8A A24U G40U | 0.31
36 | C8A A24U U28C U34A | 0.02
37 | C8A A25G U34G | 0.36
38 | C8A A25U G35U G36U C46U | 0.16
39 | C8A A26U U38A C45G C46A | 0.68
40 | C8A C10A A11U U34A | 0.03
41 | C8A C10A A16C C18G G29U | 0.03
42 | C8A C10A A26G C42U | 0.02
43 | C8A C10A C18U G22A C37G G40A | 0.01
44 | C8A C10A G30U C37U U38G C46G | 0.02
45 | C8A C10A U28A G29U | 0.01
46 | C8A C10A U28G G30U | 0.02
47 | C8A C10G A11U U32C C37A | 0.01
48 | C8A C10G A14C C15G G30C U32A | 0

Row | Variant | self-cleavage
49 | C8A C10G C13A A24U G27U G36A C46A | 0.01
50 | C8A C10G G19C G29U | 0.01
51 | C8A C10G G19U | 0.08
52 | C8A C10G G19U G27C G33U A41U U43A | 0.01
53 | C8A C10G G40A | 0.01
54 | C8A C10G U38G | 0.01
55 | C8A C10U A11C C18U A26G | 0.01
56 | C8A C10U A14C G35A | 0.02
57 | C8A C10U A41U | 0.04
58 | C8A C10U C13U C42U | 0.08
59 | C8A C10U U38A | 0.05
60 | C8A C13A A26G A41U | 0.12
61 | C8A C13A C15A A16G G19U A25U A41U | 0.1
62 | C8A C13A C15U C31A | 0.41
63 | C8A C13A G17U A25G G29U G33A | 0.15
64 | C8A C13A G22A G35C | 0.23
65 | C8A C13A U20A A24U A26U | 0.22
66 | C8A C13A U32C | 0.5
67 | C8A C13U A16U G30C | 0.09
68 | C8A C13U A25C | 0.15
69 | C8A C13U A26U | 2.13
70 | C8A C13U C18A U28G | 0.42
71 | C8A C13U C45A | 0.57
72 | C8A C13U G35A C37A | 1.51

Row | Variant | self-cleavage
73 | C8A C13U U20A G29U C31U | 0.2
74 | C8A C13U U28C | 0.64
75 | C8A C15A A16U G35C A41U | 0.11
76 | C8A C15A G19U A41C | 0.09
77 | C8A C15A G21A G36C | 0.06
78 | C8A C15A G40U | 0.08
79 | C8A C15A U34A G40C | 0.15
80 | C8A C15G C18G | 0.02
81 | C8A C15G G17C G27A A39U C46A | 0.13
82 | C8A C15G G19U A26U | 0.33
83 | C8A C15G U28G G30U | 0.13
84 | C8A C15U C23A C42G G44U | 0.04
85 | C8A C15U G36A | 0.48
86 | C8A C18A G22A A26U U32A | 0.08
87 | C8A C18A U38C | 0.02
88 | C8A C18G C31G C46A | 0.12
89 | C8A C18G G21C C31U C42G | 0.07
90 | C8A C18U A25U U32A C37G | 0.17
91 | C8A C18U C23A A24U G30A | 0.09
92 | C8A C18U G22A G40C C46A | 0.16
93 | C8A C18U G29C | 0.15
94 | C8A C23A G33U A39C | 0.15
95 | C8A C23G C42G | 0.51
96 | C8A C23U C46A | 1.28

Row | Variant | self-cleavage
97 | C8A C23U G27U U34C | 0.53
98 | C8A C31A C37U | 0.05
99 | C8A C31G G35U | 0.01
100 | C8A C37A A39C A41C | 0.03
101 | C8A C37A A39U | 0.02
102 | C8A C37A A41U | 0.02
103 | C8A C37G G40U A41U | 0.01
104 | C8A C42U C45G C46U | 0.15
105 | C8A G17A G21U C23G U38C | 0.04
106 | C8A G17A G35A G36U | 0.03
107 | C8A G17C A26G | 0.19
108 | C8A G17C A41G | 0.06
109 | C8A G17C G19A | 0.71
110 | C8A G17C G19A A25G G33C | 0.17
111 | C8A G17C G27C G35C | 0.12
112 | C8A G17C G36U A41G C42G | 0.12
113 | C8A G17U C31G U32A U43C C45A | 0.14
114 | C8A G17U G27U G33U | 0.16
115 | C8A G17U G29U | 0.24
116 | C8A G17U G30A A39U U43A C45A | 0.42
117 | C8A G17U U38C | 0.19
118 | C8A G19A C23G U43C | 0.06
119 | C8A G19A G21A G27U C42G | 1.09
120 | C8A G19C C23U | 0.09

Row | Variant | self-cleavage
121 | C8A G19C C37G | 0.03
122 | C8A G19C U20A A26G G30C C31U U32C | 0.03
123 | C8A G19U A41U | 0.22
124 | C8A G19U G22A G35U A39C | 0.02
125 | C8A G19U G27U | 0.24
126 | C8A G19U U32G G40A | 0.03
127 | C8A G21A G22A U38C | 0.12
128 | C8A G21A G29C G30U | 0.08
129 | C8A G21C C23U A26C U32A G33A U34G | 0.04
130 | C8A G21C C45A | 0.66
131 | C8A G21C U32C | 0.82
132 | C8A G21U C23G U32G G35A | 0.07
133 | C8A G21U C23U A24G G33A G35C C37A A39U C46A | 0.02
134 | C8A G21U G35U | 0.79
135 | C8A G21U U43A | 0.05
136 | C8A G22A A26U C46A | 0.14
137 | C8A G22A U34C G44C | 0.03
138 | C8A G22C G33A U34C C37U C45A | 0.2
139 | C8A G22U A26G G29A G36A C46G | 0.49
140 | C8A G22U G29A | 0.19
141 | C8A G22U G29U U38C | 0.36
142 | C8A G22U G30U C42A | 0.19
143 | C8A G22U G36A | 0.55
144 | C8A G27C U34A | 0.15

Row | Variant | self-cleavage
145 | C8A G27U C45A | 0.46
146 | C8A G27U U28A G35U C46U | 0.16
147 | C8A G29A C37U | 0.08
148 | C8A G29A G30U U32C G35A | 0.1
149 | C8A G29A G33A U38A G40U | 0.12
150 | C8A G29C A41C G44A | 0.04
151 | C8A G29C C37G G44A | 0.08
152 | C8A G29U A39U | 0.1
153 | C8A G29U U43A | 0.02
154 | C8A G29U U43A G44A | 0.3
155 | C8A G30A G40A C46U | 0.11
156 | C8A G30U G35C | 0.03
157 | C8A G33A C37A G40A G44A | 0.12
158 | C8A G33A G36U U43C G44A C46U | 0.14
159 | C8A G35C G36A A39G | 0.11
160 | C8A G35C G36U | 0.14
161 | C8A G35U C45U | 0.63
162 | C8A G35U U43A | 0.07
163 | C8A G36U C45G | 0.15
164 | C8A G44A C45A | 0.11
165 | C8A G44A C45U | 0.29
166 | C8A G44C C46U | 0.1
167 | C8A G44U C45U | 0.28

Reference: the RNAGym collection of RNA variant scans (doi:10.7554/elife.90254)
